Data on 167 variants can be found in the RNAGym collection of RNA variant scans (doi:10.7554/elife.90254).

First the molecules themselves.
B1: LINE1-full (parent)
chain: UACGUAGGUGGUUUUCCCCUGAUAGUGCUAAGGGGGCCUGGAAGUUUGGACUGGGCAGAGCUCAACACAGCGUGGCAAAGUGGCUGUGGCUAGACUGCCUCUCUGGAUUCCUCGUCACUCAGCAGGGCAUCUCUGAGAGAAAUGCC

The source gives no read counts; variants with many changes may rest on few reads.

Variants of B1 are the subject of the data set. The data set is described as follows: self-cleavage, relative activity (ratio to wild type); higher = more cleavage; in vitro, sequencing; the parent is a self-cleaving ribozyme.
Consider A69G A77U A136G, for which the self-cleavage stood at 0.32.
In the case of U12C A64G U85A U134C, the self-cleavage stood at 0.16.
On to G32C A69U C71U, for which the self-cleavage was 0.04.
Turning to A67G G126A U143C, the self-cleavage is 0.54.
On to U14C U29C A50G U130C, for which the self-cleavage was 0.
In the case of U15C U96G U100C, the self-cleavage is 0.19.
As for A24U A59U U85A U100C A136G, the figure is 0.
As for G36C A42C A79G, the self-cleavage worked out at 1.38.
With G8A U14C A59U U91C, the self-cleavage was 1.16.
Turning to G7A U85A U115C, the self-cleavage turned out to be 0.04.
As for A64G U130C U132A, the figure is 0.88.
As for U9C U104A U109C A124G, the figure is 0.73.
As for G4A U12A A94G U115A, the self-cleavage worked out at 0.21.
The result for U96A A129G U143C reads 0.18; that for U23C U29A C63U U87C U100A U132C, 0.17; that for G74U A140G U143C, 0.63.
The result for A77U A124G U143A reads 0.5.
For U26C U39A G49A U73G A124U, the self-cleavage came to 0.66.
Take U62C U115C A117U: the self-cleavage worked out at 0.05.
For the variant U96C A117U A141G, the self-cleavage amounted to 0.12.
As to U15C A79U A141U, the self-cleavage turned out to be 0.7.
For the variant C37A U119C A124G A129G U143A, the self-cleavage worked out at 0.62.
For U15C U130A U143C, the self-cleavage stood at 1.23.
Turning to U14C U15C U39C U100A A142G, the self-cleavage came to 0.68.
As to U20G U39A A79G, the self-cleavage amounted to 0.7.
Turning to C19A U96C U112A, the self-cleavage was 0.08.
Regarding U13A A22G U132C, the self-cleavage stood at 0.55.
For the variant A31U G75A A117U, the self-cleavage turned out to be 1.37.
With U29A A121U U132A, the self-cleavage is 1.54.
On to G49U U52A A77G U130C A136G, for which the self-cleavage is 2.39.
For A67U A69U A94G A142G, the self-cleavage turned out to be 0.1.
As for G35A U108C U130C, the figure is 1.13; as for U12C U14C A78G U87A, 0.16; as for C37G U45G U112C U115C, 1.74.
In the case of U12C U14C U20C A65G A69C G80A, the self-cleavage was 0.17.
Turning to A50G U73A U81A A92U, the self-cleavage came to 0.26.
For C37U U39C A79G G137A, the self-cleavage amounted to 1.28.
As for U15C U96A U130A, the self-cleavage was found to be 0.07.
The result for A30G A42G A57U reads 0.75; that for U14A U108C A121U C131U, 0.64; that for G72U G139C A140G, 1.44.
As for U12C A42G A50G A136G, the self-cleavage was 1.31.
With U14A U26C A59U A117G A129G A138G, the self-cleavage was determined as 0.92.
Take U20C U29C A78G: the self-cleavage was 2.48.
For A2G U39A A79G C84U, the self-cleavage was 0.29.
As to G32A A107G U132A, the self-cleavage is 1.46.
Turning to U12C G32C U62C, the self-cleavage amounted to 0.26.
On to A2G A57U A94G, for which the self-cleavage is 0.25.
On to A69G A79G A141U, for which the self-cleavage was 0.15.
For the variant A69U U108A A129G, the self-cleavage was 0.04.
In the case of C17U A64G U119A A136G, the self-cleavage came out at 0.29.
On to U23C U100A A138G, for which the self-cleavage turned out to be 1.26.
The result for A42G A79G A117G reads 0; that for A43U A57G A78G, 0.57; that for U12C G53A U87C A124G, 0.12.
The result for U9A U45C U109G reads 0; that for A78G U85A A140G, 0.06.
Take U13A U47A U52C U108C G122A: the self-cleavage came to 0.75.
On to U91A G93U U100C U115C A138G, for which the self-cleavage was 0.02.
As for U29C A30U A136G, the figure is 1.18; as for A57G U87C U115C G126A, 0.
The result for G80A U115A C133A U134C reads 1.57.
Consider U15C A65G U73A, for which the self-cleavage amounted to 0.05.
As for A22G U62A A94U, the self-cleavage is 0.03.
In the case of U26A A30G U45G A59C, the self-cleavage was determined as 0.84.
U45G A57G U102C: the self-cleavage was determined as 0.51.
As for A42G U62C U134C, the figure is 0.03; as for U108A U132C U134A, 0.79.
On to A43G G83A U87C U102A C113U, for which the self-cleavage is 0.05.
As for U85C U91C U109A, the figure is 0; as for A67G U91C A129U A138G, 0.
As for C51U A67U G126U, the figure is 0.09.
In the case of A2G U14A U46C, the self-cleavage is 2.91.
With U20C U23C A43G, the self-cleavage worked out at 1.92.
Consider U45C A79G G88C G122A, for which the self-cleavage was 0.1.
For G21U G82U U104A U132C, the self-cleavage amounted to 1.16.
As for U5C A6G U13C A42U, the figure is 0.61; as for U20G U47A G144U, 0.88.
For the variant G35A U39A U85C C133U, the self-cleavage was found to be 0.13.
As for U13C A50U A129G A140U, the self-cleavage was found to be 1.
Consider U23C A65U A77U U115A, for which the self-cleavage was 0.26.
With G11A C113U A140G A142G, the self-cleavage came out at 0.98.
As for U15C U46C U47A A65U A121G, the self-cleavage was found to be 0.34.
The result for U1C G44A A77G U91A reads 0.41; that for A57U A67G A129U A140G, 0.06.
As to G83U A138G A142G, the self-cleavage is 1.06.
In the case of U9C U87A C99U U130C A140G A142G, the self-cleavage came to 0.12.
For the variant A30G U39C G60A C90A, the self-cleavage turned out to be 0.1.
The result for U13C U14A U62C A117G reads 0.
For the variant A22U G54A A69U, the self-cleavage stood at 0.05.
Consider A57G U62C A129G A141G U143C, for which the self-cleavage was 0.
For G49U A78G U134C, the self-cleavage is 1.04.
The result for A78G U85C U100C reads 0.61; that for A79G A121U A140G, 0.33.
For the variant A2G U9C U81A U143C, the self-cleavage is 1.72.
For U20A G93U U100C U104C A107G, the self-cleavage stood at 0.
As to U1G C37U A64G A65G U87C A121U, the self-cleavage worked out at 0.
For the variant A59U A67G U102C, the self-cleavage turned out to be 0.14.
Turning to G32C A64G A69G, the self-cleavage amounted to 0.
A2G U12G U39C U96A A121U A141G: the self-cleavage turned out to be 0.
Consider G126A A140G C145G, for which the self-cleavage was determined as 1.42.
Regarding U9C A78G A107G, the self-cleavage came out at 1.67.
Regarding U20C U39C U47G G74A G114U A141G, the self-cleavage was found to be 0.86.
For the variant U85A G125A A138G, the self-cleavage amounted to 0.09.
Consider A22G U85C C99G, for which the self-cleavage stood at 0.13.
On to A31G U39C U81A, for which the self-cleavage turned out to be 1.31.
With A107G U115G U132C, the self-cleavage was found to be 0.
As to U47C U108C U130C, the self-cleavage amounted to 2.51.
For the variant U20C A31U A43G G125U, the self-cleavage was determined as 1.1.
For C76A U104A U108C U115C U132C U134C A140G, the self-cleavage came out at 2.42.
With U39A A64G U85C A140G, the self-cleavage came to 0.16.
As for U14A U62C U73C, the self-cleavage was 0.
With A22U A43U A92G A94G C99U, the self-cleavage was found to be 0.13.
The result for U26A U46C C113U reads 0.38; that for A43G U112C A136U, 0.79.
Consider U12C U20A G48U U96C, for which the self-cleavage is 0.19.
Regarding C84G A124G U143C, the self-cleavage came to 0.46.
The result for U85C U134C A142G reads 0.34.
In the case of U12G U109A U134C, the self-cleavage was found to be 2.83.
The result for U20G U62A A79G reads 0.05; that for U1A U39G A140G U143A, 0.61.
The result for U1A U14C U87C U134C reads 0.42.
For the variant G60U G97U U115C A129U, the self-cleavage was 0.01.
In the case of G72A U108A U134C, the self-cleavage was 1.31.
For the variant A30U U52C U143A, the self-cleavage is 1.41.
Consider U14C A57G U91C A142G, for which the self-cleavage was 0.27.
Turning to U5A G48U A138G, the self-cleavage amounted to 0.51.
As for A92G U112C A141G, the figure is 0.25.
On to A22U U115C U134G, for which the self-cleavage was 1.2.
In the case of G53A A77G G89A, the self-cleavage is 0.07.
As for A64U U73G A79G A142U, the self-cleavage was 0.12.
Turning to G32C U119C A138G, the self-cleavage is 1.64.
The result for A30U C76U A140G A142G reads 1.44.
Take G34A U46A G49A: the self-cleavage was 1.28.
A22G U23G A67G G137A: the self-cleavage is 1.25.
Consider A57G C71U U87C, for which the self-cleavage came to 0.04.
As for A6G U13A C51A A77G A121G, the self-cleavage came out at 1.15.
For the variant U13C U52C U62C U96A, the self-cleavage is 0.
For the variant U5G A67G G126U, the self-cleavage was 0.71.
As for C37G A64G C76U U81C, the figure is 0.18.
On to U23C A43G A140G, for which the self-cleavage worked out at 1.11.
On to U46A U62A A124G A136G, for which the self-cleavage stood at 0.06.
The result for A77U U87C U91C U109A U112G U115A reads 0; that for U47C C66U A79U A142G, 0.04; that for A22G A31U U62C, 0.
A6U C18A U47C: the self-cleavage came out at 0.78.
In the case of C63A A65C U96C A142G, the self-cleavage is 0.05.
On to U1C G34A A57G A65U U132A A142U, for which the self-cleavage was 0.2.
Consider U13C U39C U45C C99U, for which the self-cleavage was found to be 0.33.
With U15C U73C A94G, the self-cleavage amounted to 0.61.
In the case of U12A G80C G114U, the self-cleavage came to 1.34.
Turning to U29C G83A U100C, the self-cleavage was 1.61.
The result for C37A U102C A107G U112A reads 0.98; that for A30G G36A C113A, 1.26.
For U47A U115A A121G, the self-cleavage amounted to 1.65.
Take U12C U14C A107G A138G: the self-cleavage turned out to be 1.59.
On to A57G C113U A136G, for which the self-cleavage came to 0.92.
Take U52A U104C U115C: the self-cleavage is 2.9.
Take U13C A65G G72A: the self-cleavage amounted to 0.05.
As to U9C U23A G75A A136G U143C, the self-cleavage is 1.19.
For A2G A31U U62C C146U, the self-cleavage was determined as 0.63.
For U14C A42U A64G, the self-cleavage turned out to be 0.
With U39C U109C U143A, the self-cleavage was determined as 0.43.
A30U A64U U87A A92G: the self-cleavage is 0.05.
Take U15C A22G A69G C90U: the self-cleavage amounted to 0.05.
As for U20C C61U A69G U91C U108C, the figure is 0.
For the variant U13C U87A U119G, the self-cleavage came to 0.16.
